Some of the results follow.
The compounds below were run on HepG2 (assay: cytotoxicity call (relative viability < 0.9)). Conditions: 10 µM.

| SMILES | cytotoxicity call |
| --- | --- |
| Cn1ncc2c(=O)nc[nH]c21 | inactive |
| COc1ccccc1S(=O)(=O)N(C)C[C@H]1Oc2cc(C#CCC(C)C)ccc2S(=O)(=O)N([C@@H](C)CO)C[C@H]1C | active |
| O=c1cccn[nH]1 | inactive |
| COC(=O)c1c(C)c2c(c(C)c1O)OC(=O)c1c(C)c(Cl)c(O)c(Cl)c1O2 | inactive |
| CC(C)CNC(=O)C[C@H]1NCCNC1=O | inactive |
| COc1ccc(-c2coc3cc(O)cc(OC)c3c2=O)cc1 | inactive |
| O=C(O)Cc1cccc(OCCCN(Cc2cccc(C(F)(F)F)c2Cl)CC(c2ccccc2)c2ccccc2)c1 | inactive |
| C[C@@H]1CN([C@@H](C)CO)C(=O)c2cc(NC(=O)Nc3cccc4ccccc34)ccc2O[C@H]1CN(C)C(=O)Nc1cccc2ccccc12 | inactive |
| C[C@@H]1CN([C@@H](C)CO)C(=O)c2cccc(NC(=O)Nc3ccccc3)c2O[C@H]1CN(C)CC1CCCCC1 | inactive |
| C[C@@H]1CN([C@H](C)CO)C(=O)CCCn2cc(nn2)CO[C@@H]1CN(C)C(=O)Nc1cccc(Oc2ccccn2)c1 | inactive |
| C[C@H](CO)N1C[C@H](C)[C@H](CN(C)CC2CC2)OCCCC[C@H](C)Oc2ccc(NC(=O)Nc3ccc4c(c3)OCO4)cc2C1=O | inactive |
| C[C@@H]1CN([C@@H](C)CO)C(=O)c2cccc(NC(=O)C3CCOCC3)c2O[C@@H]1CN(C)Cc1ccc(-c2ccccc2)cc1 | inactive |
| COc1ccc(NC(=O)N2C[C@@H](O)COC[C@H]3O[C@H](CC(=O)NCc4ccccc4OC)CC[C@@H]32)cc1 | inactive |
| COc1c(C)cc(-c2cc3c(c(CCc4ccccc4)n2)[Si](C(C)C)(C(C)C)O[C@H]3c2ccccc2)cc1C | inactive |
| COc1ccc2c3c([nH]c2c1)[C@H](CO)N(C[C@]13CN(Cc2ccccc2F)C1)S(=O)(=O)c1cn(cn1)C | inactive |
| COc1ccc(-c2cc(=O)c3c(OC)c(OC)c(OC)cc3o2)cc1OC | inactive |
| Cc1noc(C)c1S(=O)(=O)Nc1ccc2c(c1)C(=O)N([C@H](C)CO)C[C@H](C)[C@H](CN(C)CC1CCCCC1)OCCCC[C@H](C)O2 | inactive |

| SMILES | cytotoxicity call |
| --- | --- |
| C[C@H](CO)N1C[C@H](C)[C@H](CN(C)C(=O)Nc2cccc3ccccc23)Oc2c(NC(=O)NC3CCCCC3)cccc2C1=O | inactive |
| COCCNC(=O)c1ccc(N2C[C@H]3C[C@@H](C2)c2cccc(=O)n2C3)c(NC(=O)c2ccc(OC)cc2)c1 | inactive |
| COC(=O)CCn1cc(F)c(N)nc1=O | inactive |
| C[C@H]1CN([C@@H](C)CO)C(=O)Cc2cc(NC(=O)Nc3ccc(C(F)(F)F)cc3)ccc2O[C@H]1CN(C)C(=O)NC1CCCCC1 | inactive |
| C[C@@H]1CN([C@H](C)CO)C(=O)c2cc(NC(=O)Cn3cnnn3)ccc2O[C@H]1CN(C)Cc1ccc(C(F)(F)F)cc1 | inactive |
| C[C@H](CO)N1C[C@H](C)[C@H](CN(C)C(=O)Nc2ccccc2F)OCCCC[C@H](C)Oc2ccc(NC(=O)C3CCCCC3)cc2C1=O | inactive |
| COc1c(O)cc2c(c1O)[C@@H]1O[C@H](CO)[C@@H](O)[C@H](O)[C@H]1OC2=O | inactive |
| Cc1noc(C)c1NC(=O)Nc1ccc2c(c1)CC(=O)N([C@@H](C)CO)C[C@@H](C)[C@@H](CN(C)Cc1ccc(Cl)c(Cl)c1)O2 | inactive |
| Cc1cccnc1[C@@H](NC(=O)C1CCN(Cc2ccc(Cl)c(Cl)c2)CC1)c1ccc(Cl)cc1 | active |
| O[C@@H](CCl)CN1CC[N+]2(CC1)CC[N+]1(CCN(C[C@@H](O)CCl)CC1)CC2 | inactive |
| Cc1ccc(S(=O)(=O)Nc2ccc3c(c2)CC(=O)N([C@@H](C)CO)C[C@@H](C)[C@@H](CN(C)C(=O)NC(C)C)O3)cc1 | inactive |
| NS(=O)(=O)c1cc2c(cc1Cl)NCNS2(=O)=O | inactive |
| Cn1c(CN)nc2ccccc2c1=O | inactive |
| COc1ccc(S(=O)(=O)Nc2ccc3c(c2)C(=O)N([C@@H](C)CO)C[C@H](C)[C@H](CN(C)CC2CC2)O3)cc1 | inactive |
| C[C@@H]1CN([C@@H](C)CO)C(=O)c2cc(NC(=O)Nc3ccc(F)cc3)ccc2O[C@@H](C)CCCCO[C@H]1CN(C)Cc1ccncc1 | inactive |
| COc1ccc(S(=O)(=O)Nc2ccc3c(c2)CC(=O)N([C@H](C)CO)C[C@H](C)[C@@H](CN(C)S(=O)(=O)c2ccccc2)O3)cc1 | inactive |
| C[C@@H]1CN([C@H](C)CO)C(=O)c2cc(NC(=O)Nc3ccc(C(F)(F)F)cc3)ccc2O[C@@H](C)CCCCO[C@@H]1CN(C)C(=O)NC1CCCCC1 | inactive |

From the antibiotic and cytotoxicity screens of Wong et al. (2023)
